Results taken from PubChem BioAssay AID686971 (National Center for Advancing Translational Sciences (NCATS), 2013).
Screen size: about 360,000 compounds; about 7,500 (2.1%) were called active. The shares of active, inactive and inconclusive entries below differ from those in the screen. Calls follow the shape of the dose curve; as a rule, active = well fitted cell-killing curve with a large enough effect; inconclusive = small, poorly fitted or top-dose-only effect, or effect the other way, or another doubt; inactive = no such curve, though single readings can be large or run the other way. Potencies of inconclusive entries are left out as doubtful fits.

test: qHTS for induction of synthetic lethality in tumor cells producing 2HG: qHTS for the HT-1080-IDH1KD cell line; conditions: HT-1080 IDH1 knockdown viability, ATP luminescence, 48 h; activity, negative = toxicity: at 46.1 µM (top of the series) unless noted;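 as to activity, negative = toxicity: 0% = DMSO wells and -100% = cell-free medium wells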
Method in brief: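 Using the IDH1-knockdown HT-1080 line run in the same batch and compound series as the NT line, viability after 48 h at 37 °C was determined by CellTiter-Glo luminescence and expressed as % activity.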
Potency is read from the fitted curve at half-maximal effect; tags tell the direction and shape of the fitted curve.

| SMILES | Potency | activity, negative = toxicity |
| --- | --- | --- |
| CC(C)(C)C(=O)Cn1nnc(-c2ccc(C(F)(F)F)cc2)n1 | inactive |  |
| Cc1ccc(Nc2c(-c3ccccn3)nc3cccc(C)n23)cc1 | active: 7.31 µM |  |
| CCC1CCC2(CC1)NC(=O)N(CC(=O)Nc1cccc(S(=O)(=O)N(C)c3ccccc3)c1)C2=O (configuration not stated) | inconclusive [cytotoxic, partial curve] |  |
| Cc1cnn(C(=S)NCc2ccc(Cl)cc2)c1 | inconclusive [cytotoxic, single point] |  |
| Cc1nc(-c2ccc(F)cc2)c(CC(=O)N(C)CC(=O)Nc2ccc(Cl)c(C(F)(F)F)c2)s1 | active: 16.4 µM |  |
| O=C(NCC(F)(F)F)c1ccc(S(=O)(=O)Nc2ccccc2N2CCCC2)cc1 | inactive |  |
| COC(=O)C1=C(Nc2ccc(C)cc2)C=C(C)C(C(=O)OC)C1c1ccc(OC)cc1 (configuration not stated) | inconclusive [cytotoxic, single point] |  |
| CCO[C@@H]1OC(C(=O)N2CCN(Cc3ccccc3)CC2)=C[C@H](c2csc3ccccc23)[C@H]1CCCO | inactive |  |
| CC1CCN(Cc2c(C(=O)N/N=C/c3ccc(C(F)(F)F)cc3)nnn2-c2nonc2N)CC1 | active: 25.9 µM |  |
| O=C1OCCN1C(=O)[C@H]1[C@H](c2ccc(Cl)cc2)C(c2ccc(F)cc2)=NN1c1ccc(Br)cc1 | inconclusive [cytotoxic, single point] |  |
| CCCc1nc2c3ccccc3ccn2c1Cc1ccccc1C(F)(F)F | inconclusive [cytotoxic, single point] |  |
| COC(=O)c1cc(C(=O)N2CCN(c3cccc(Cl)c3)CC2)cc([N+](=O)[O-])c1 | active: 0.461 µM |  |
| COC(=O)Nc1nc(C)c(C(=O)c2ccccc2)s1 | inconclusive [cytotoxic, single point] |  |
| Cc1ccnc(NC(=O)C2CCN(S(=O)(=O)c3ccc4c(c3)CC(C)N4C(=O)C3CCC3)CC2)c1 (configuration not stated) | inconclusive [cytotoxic, single point] |  |
| COc1ccc(C(=O)NC(C)c2ccc(-n3ccnc3)cc2)c(OC)c1 (configuration not stated) | inactive |  |
| CCC(C)NC(=O)c1cc2c(=O)n3cccc(C)c3nc2s1 (configuration not stated) | inactive |  |
| Cc1cc(C)c(C(=O)/C=C/c2ccc3c(c2)OCO3)c(=O)[nH]1 | inactive |  |
| CCN(CC)S(=O)(=O)c1ccc(NC2c3ccccc3C(=O)N2Cc2ccco2)cc1 (configuration not stated) | inactive |  |
| CCc1nc2ccccc2c(C(=O)OCC(=O)N(CC(C)C)c2c(N)n(Cc3ccccc3)c(=O)[nH]c2=O)c1C | inconclusive [cytotoxic, single point] |  |
| CC(=O)Cc1nsc(NC(=O)c2ccc(-c3cccc(Cl)c3)o2)n1 | inconclusive [cytotoxic, single point] |  |
| NS(=O)(=O)c1cccc(NC(=O)COC(=O)CCN2C(=O)c3ccccc3C2=O)c1 | inactive |  |
| COC(=O)c1ccccc1C(=O)N1CCC(CCC(=O)NC2CC2)CC1 | inactive |  |
| Cn1nc(C(C)(C)C)cc1C(=O)N1CCCCC1c1cc(C(=O)NCc2ccccc2)no1 (configuration not stated) | inconclusive [cytotoxic, single point] |  |
| CCOC(=O)c1c(C)n(C)c2ccc(OCC(O)Cn3c(C)nc4ccccc43)cc12 (configuration not stated) | inconclusive [cytotoxic, single point] |  |

| SMILES | Potency | activity, negative = toxicity |
| --- | --- | --- |
| CC(C(Sc1ccccc1N)c1ccccc1)[N+](=O)[O-] (configuration not stated) | inconclusive [cytotoxic, single point] |  |
| COc1ccc(/C(N)=N/OC(=O)c2c(-c3ccccc3Cl)noc2C)cc1OC | active: 16.4 µM |  |
| CCOC(=O)c1ccc(N2C(=O)C3C(C2=O)C(C(=O)c2ccc(Cl)cc2)N2CCCC32)cc1 (configuration not stated) | inconclusive [cytotoxic, single point] |  |
| CSc1ccc(CN2CCC(Cc3ccccc3)CC2)cc1 | inactive |  |
| O=C(Nc1ccc(O)cc1)c1cccc(Oc2ccc([N+](=O)[O-])cc2)c1 | inconclusive [cytotoxic, single point] |  |
| O=C(C1=C(O)C(=O)N(c2nccs2)C1c1ccccc1)c1cc2ccccc2o1 (configuration not stated) | inconclusive [cytotoxic, partial curve] |  |
| O=C(c1cc(COc2ccc(F)cc2Cl)on1)N1CCSCC1 | inactive |  |
| c1ccc(COc2cccc(-c3cc4nc(NCCCn5ccnc5)ccn4n3)c2)cc1 | active: 23.1 µM |  |
| Cc1ccc(-n2c(Cc3cccn3C)nnc2SCC(=O)N2CCc3ccccc32)cc1 | inactive |  |
| CCCCc1c(-c2ccccc2)ncn1CCc1ccccc1OC | inconclusive [cytotoxic, single point] |  |
| S=c1[nH]ncc2ccccc12 | inconclusive [cytotoxic, single point] |  |
| COCCNC(=O)C1(C)CCCN(C(=O)c2ccc(OC)c(OC)c2)C1 (configuration not stated) | inactive |  |
| CCOC(=S)N/C(=N\S(=O)(=O)c1ccc(C)cc1)c1ccccc1 | inactive |  |
| COc1cc(OC)cc(-c2nnc(SCC(=O)N(Cc3ccccc3)C(C)(C)C)o2)c1 | inconclusive [cytotoxic, single point] |  |
| Cc1ccc(C(=O)Nc2ccc(S(=O)(=O)N3CCc4ccccc4C3)cc2)o1 | inconclusive [cytotoxic, single point] |  |
| CCCC(=O)N1CCCC1(C)C(=O)Nc1ccc2c(c1)CCN2C(C)=O (configuration not stated) | inconclusive [rising, single point] |  |
| CCOC(=O)[C@]12CCC=C1N(Cc1ccc3c(c1)OCO3)C(=O)[C@H](CC(=O)N1CCC(c3ccccc3)CC1)C2 | inconclusive [cytotoxic, single point] |  |
| CN(C(=O)COC(=O)c1ccccc1NCCO)C1CCS(=O)(=O)C1 (configuration not stated) | inactive |  |
| c1cc2ccc3ccc(CN4CCOCC4)c4ccc(c1)c2c34 | inactive |  |
| CCC(C)c1ccc(NC(=O)NCc2cccnc2)cc1 (configuration not stated) | inconclusive [cytotoxic, single point] |  |
| O=C(N/N=C/c1c(O)ccc2ccccc12)c1ccc[n+](CCO)c1 | inconclusive [cytotoxic, partial curve] |  |
| CC1(Cc2ccc(OC(F)(F)F)cc2)C(=O)Nc2c(Cl)ccc(Cl)c21 (configuration not stated) | inconclusive [cytotoxic, single point] |  |
| COc1cccc(C#Cc2c(C=O)n(C)c3ccccc23)c1 | inconclusive [cytotoxic, single point] |  |
| FC(F)(F)c1cccc(NC(=S)NC(c2ccccc2)c2ccccc2)c1 | inconclusive [cytotoxic, partial curve] |  |

| SMILES | Potency | activity, negative = toxicity |
| --- | --- | --- |
| CCOC(=O)C(=NC(C)CC)NNc1ccc(Br)cc1 (configuration not stated) | inconclusive [cytotoxic, single point] |  |
| CC(C)C(=O)N=C1NC(=O)CS1 | inactive |  |
| Cc1ccc(C2CC(c3cccc(Cl)c3)n3nc(N)nc3N2)cc1 (configuration not stated) | inactive |  |
| COCCNC(=O)c1cc2c(c(-c3cccc(-c4cc5ccccc5o4)c3)n1)[C@@H](CCO)N(S(=O)C(C)(C)C)C2 (some centres not stated) | inconclusive [cytotoxic, single point] |  |
| CCCCN(C)CCN1C(=O)C2C(C(=O)Nc3ccc(Cl)cc3)C3C=CC2(O3)C1C(=O)NC1CCCCC1 (configuration not stated) | inconclusive [cytotoxic, single point] |  |
| COc1ccc(N2C(=O)CC(Sc3n[nH]c(-c4cccc(C)c4)n3)C2=O)cc1 (configuration not stated) |  | inconclusive: -11.8% [cytotoxic] |
| COc1ccc(NC(=O)C2CCCN2S(=O)(=O)c2cccs2)c([N+](=O)[O-])c1 (configuration not stated) | inactive |  |
| CC(C)(C)C(=O)COC(=O)c1ccc(N)c([N+](=O)[O-])c1 | inactive |  |
| COC(=O)C1(C(=O)OC)c2ncccc2N(S(=O)(=O)c2ccc(C)cc2)C1CC(=O)c1ccccc1 (configuration not stated) | inactive |  |
| COc1cc(CN(C(=O)c2ccco2)C2CCS(=O)(=O)C2)cc(OC)c1OC (configuration not stated) | inactive |  |
| CCn1c(C)c(C)c2cc(C(=O)NCCc3ccco3)ccc21 | inactive |  |
| CCOc1ccc(S(=O)(=O)Nc2cc(OC)ccc2OC)cc1 | inconclusive [cytotoxic, full curve] |  |
| CCCNC(=O)C1(C)CCCN(C(=O)c2ccc3snnc3c2)C1 (configuration not stated) | inactive |  |
| Cc1cc(N)n2ncc(-c3cccc(Br)c3)c2n1 | inconclusive [cytotoxic, single point] |  |
| COc1ccc(OCC(=O)Nc2c(C(=O)N3CCC(N4CCCCC4)CC3)oc3ccccc23)cc1 | inconclusive [cytotoxic, single point] |  |
| COc1ccc(CCNC(=O)C(=O)NCC2CCCN2S(=O)(=O)c2cc(C)ccc2C)cc1 (configuration not stated) | inactive |  |
| N#C/C(=C/c1cn(-c2ccccc2)nc1-c1cccc(OCc2ccc(F)cc2)c1)C(=O)NCCCn1ccnc1 | inconclusive [cytotoxic, single point] |  |
| CCc1cccc(C)c1NC(=S)NCC1CCN(c2ccc(OC)cc2)C1 (configuration not stated) |  | inconclusive: -31.7% [cytotoxic] |
| COc1cccc(C2=CC(c3cccs3)n3nnnc3N2)c1 (configuration not stated) | active: 8.2 µM |  |
| COc1ccc(/C=C/c2cc[n+](C(=O)Cc3ccccc3)cc2)cc1 | inconclusive [cytotoxic, partial curve] |  |
| CCCNC(=O)C1(C)CCCN(C(=O)c2ccc(OC(F)F)cc2)C1 (configuration not stated) | inconclusive [rising, single point] |  |
| Nc1nc(N)c2cc(Sc3ccc4ccccc4c3)ccc2n1 | active: 5.8 µM |  |
| O=C(CBr)N1CCc2ccccc2C(c2ccccc2)C1 (configuration not stated) | active: 20.6 µM |  |
| Cc1cc2ccccn2c1C(C[N+](=O)[O-])c1ccc(N(C)C)cc1 (configuration not stated) | inactive |  |
